Results: article PMC8473798
Results are given in words; binding and its absence hold for the method and conditions named. Binding seen in cells or lysates may run through a third protein. Some results given as binding are weak or reduced against the parent protein; the word gives no strength.

The chains behind the UniProt entries cited, without tags or fusion partners. Where a name states a change or a piece, a line headed by the entry shows the natural chain unless it says otherwise.
UniProt Q9Y4L5: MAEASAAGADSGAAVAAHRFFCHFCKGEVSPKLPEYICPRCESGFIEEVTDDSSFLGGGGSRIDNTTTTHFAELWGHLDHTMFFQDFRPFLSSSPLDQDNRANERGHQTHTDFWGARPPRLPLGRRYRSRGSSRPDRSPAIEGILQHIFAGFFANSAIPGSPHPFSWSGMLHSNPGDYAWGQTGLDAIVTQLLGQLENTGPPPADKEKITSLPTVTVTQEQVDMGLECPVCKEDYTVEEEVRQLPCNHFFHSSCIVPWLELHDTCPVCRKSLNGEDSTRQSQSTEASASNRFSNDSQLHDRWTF

Experiments:
[1] = target: T1, IRF1 (interferon regulatory factor 1), endogenous (human (endogenous in HEK293T, MCF-7, MDA-MB-231, MCF-12F)) (UniProt P10914); test: co-IP; HEK293T cells transfected with HA-tagged constructs; endogenous IRF1 immunoprecipitated with anti-IRF1 on protein G magnetic beads from pre-cleared lysate, overnight at 4°C; HA-tagged constructs looked for in the pulldown fraction by western blot
T1 sequence: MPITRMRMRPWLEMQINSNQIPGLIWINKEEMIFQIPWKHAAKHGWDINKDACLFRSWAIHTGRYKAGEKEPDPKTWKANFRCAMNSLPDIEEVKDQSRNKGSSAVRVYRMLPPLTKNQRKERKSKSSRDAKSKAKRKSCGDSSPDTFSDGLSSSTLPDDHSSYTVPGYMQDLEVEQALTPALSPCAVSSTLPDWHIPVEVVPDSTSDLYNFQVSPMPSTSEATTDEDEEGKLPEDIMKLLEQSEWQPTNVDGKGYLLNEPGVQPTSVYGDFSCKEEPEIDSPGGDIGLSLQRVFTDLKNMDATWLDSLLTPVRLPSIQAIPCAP

[2] = target: T1, IRF1 (interferon regulatory factor 1), endogenous (human (endogenous in HEK293T, MCF-7, MDA-MB-231, MCF-12F)); test: co-IP; MCF-7 (ER+) cells transfected with HA-tagged constructs; endogenous IRF1 immunoprecipitated with anti-IRF1 on protein G magnetic beads from pre-cleared lysate, overnight at 4°C; HA-tagged constructs looked for in the pulldown fraction by western blot

Row | binding [1] | binding [2] | Substance
1 | binds | – | HA-BCA2-△Ring (BCA2 amino acids 1-227) (from UniProt Q9Y4L5 1-227) (domain or fragment)
2 | no binding | no binding | HA-ΔBZF (BCA2 amino acids 47-304, lacking the zinc-finger domain) (from UniProt Q9Y4L5 47-304) (domain or fragment)
3 | binds | binds | HA-BCA2-△C-GST (BCA2 amino acids 1-147, C-terminus replaced by GST) (from UniProt Q9Y4L5 1-147) (domain or fragment)
